Reference: ChEMBL document CHEMBL4888484, “Replenishing the malaria drug discovery pipeline: Screening and hit evaluation of the MMV Hit Generation Library 1 (HGL1) against asexual blood stage Plasmodium falciparum ,using a nano luciferase reporter read-out” (2022)
Among all 150,000 compounds or so, about 540 (0.36%) showed an effect of 50% or more. This is one part of the list.

These compounds were tested on Plasmodium falciparum (assay: Primary screen in NF54 nanoGlo assay, in single point, at 2uM, 72h; a lower Z score goes with more inhibition). Details: timepoint 72 hour.
Format: functional, Erythrocyte

SMILES	% Inhibition	Z score
COCCn1ccc(NC(=O)C(=O)NCCCc2c[nH]c3ccccc23)n1	-13%	1.57
C[C@@H]1CN(C(=O)CCc2cn3ccccc3n2)C[C@]1(C)O	-2%	0.22
Cn1nc(C(F)(F)F)c2cc(C(=O)NCCc3ccc[nH]3)cnc21	-13%	1.28
O=C(NCc1cc[nH]n1)N1CCN(c2nccs2)CC1	-7%	1.39
CC(COc1ccc(F)c(F)c1)NCC(O)C1CCOCC1 (centres undefined)	-11%	1.02
Cc1ccc2c(c1)N(S(C)(=O)=O)CC[C@@H](C(=O)Nc1ccccc1C(=O)N1CCCCCC1)O2	5%	-0.68
CC(C)(C)C[C@H]1CCN(C(=O)CCn2cnccc2=O)C1(C)C	-9%	1.22
COc1nc(-c2cnn(C)c2)cc(C(F)(F)F)n1	1%	-0.12
C#C[C@H](C)NS(=O)(=O)Cc1cc(OC)ccc1Br	-8%	1.48
COc1cc(Cl)c(C)cc1NC(=O)CN1CC[C@@]2(CCCOC2)C1	-9%	1.17
CC[C@@H]1Oc2ccc(NS(=O)(=O)c3ccc(Cl)cc3)cc2CN(CCc2ccccc2OC)C1=O	-13%	1.21
O=C(Cc1ccon1)N1CCN(c2ccccn2)CC1	-6%	0.67
Cc1ccccc1-c1cc(C(=O)N(C2CCCCC2)C2CCCCC2)c2ccccc2n1	-1%	0.21
CCCN(CCC)S(=O)(=O)N(C)Cc1ncccn1	-6%	1.13
O=C(CCc1cccc(Cl)c1)N1CCC(n2cnc3ncccc3c2=O)CC1	-11%	1.4
CCc1nc(CN(Cc2cn3c(n2)CCCC3)S(C)(=O)=O)cs1	-32%	3.78
C[C@H]1C[C@@H](C(=O)Nc2ccccc2OCc2cccc(Cl)c2)CCN1	2%	-0.23
CC(=O)c1ccc(OCCNC(=O)c2cn(-c3ccc(F)cc3)nn2)cc1	-21%	1.86
O=C(c1csc2c1CCCC2)N1CCC(CO)CC1	-7%	0.56
Cc1cccc([C@H](CNC(=O)CCc2ccno2)N(C)C)c1	-12%	1.82
Cn1cc([C@@H]2CCCCN2S(=O)(=O)c2ccc3c(c2)CCO3)cn1	-19%	2.48

SMILES	% Inhibition	Z score
C=C[C@H](C)NC(=O)N1CC(=O)N(CC)C1	-3%	0.43
Cn1nccc1NC(=O)Cn1ccc(-c2ccc(F)c(F)c2)n1	-7%	1.06
Fc1ccc(-c2nc(Nc3cccc(Cl)c3)nc3c2COc2ccccc2-3)cc1	-19%	2.78
Cc1nonc1N1CCN(C(=O)[C@@H](c2ccc3c(c2)OCO3)N(C)C)CC1	-10%	1.38
Cc1c[nH]c([C@H](C)NC(=O)c2conc2-c2ccccc2)n1	4%	-0.83
CC(=O)NCCN(C(=O)c1oc(Br)cc1C)c1ccc(Br)cn1	-1%	0.22
CNC(=NCC1(c2ccc(F)cc2)CC1)NC1CC1	2%	-0.25
CC1CCC2(CC1)OC[C@@H](C(=O)NCCN1CCOCC1)N2C(=O)c1ccccc1F (some centres undefined)	-4%	0.48
Cc1nc(C(C)C)c(C(=O)Nc2ccc(N3CCCS3(=O)=O)cc2)s1	-6%	0.6
CN(C[C@H]1COCCO1)C1CCN(c2ccc(NC(=O)CCCCc3ccccc3)cc2)CC1	8%	-0.98
O=C(CCc1nc(-c2ccsc2)no1)Nc1cccc(Cl)c1F	-8%	1.19
Cc1cccc(NS(=O)(=O)c2ccc3c(c2)OCCCO3)n1	3%	-0.44
CCCc1nnc(N(C)CCC(C)(C)O)s1	-18%	1.85
O=C(c1cnn2c1CCCC2)N1CCCS(=O)(=O)C[C@H]1C1CC1	2%	-0.38
Cc1nnc(CCNC(=O)c2ccc3nc(-c4ccc(F)cc4)cn3c2)[nH]1	-5%	0.79
O=c1ccc(-c2ccccc2)nn1CN(Cc1cccc(F)c1)C1CC1	-1%	0.16
CC(C)n1cc(CN(Cc2ccncc2)Cc2ccco2)cn1	-1%	0.17
Cc1ncn(C[C@H](O)COc2ccc(F)cc2)c(=O)c1C	-17%	2.39
Cc1cccc(N2CCN(C(=O)[C@H]3CCc4cncn4C3)CC2)c1C	-5%	1.13
O=C(Cc1ccc(F)cc1)N1CC(Cc2nncn2CC2CC2)C1	-1%	0.1
Cn1cc(NC(=O)NC(C)(C)CC(=O)OC(C)(C)C)cn1	11%	-1.48
